The test system of this assay is MLKL phosphorylation, HT29-L23 human colorectal adenocarcinoma cells. The assay is described as follows: cells. To be noted: read-out: pMLKL HCS Cell Assay (IC50, uM).
For the compound `COc1ncc(-c2cc(C(F)(F)F)c3c(N)ncnn23)cc1C(=O)N[C@@H]1CN(C(=O)c2ccnc(C)c2)C[C@@H]1F` [Example 313, 5-[4-amino-5-(trifluoromethyl)pyrrolo[2,1-f][1,2,4]triazin-7-yl]-N-[(3R,4S)-4-fluoro-1-(2-methylpyridine-4-carbonyl)pyrrolidin-3-yl]-2-methoxy-pyridine-3-carboxamide], the IC50 was 0.065 µM.
As for `COc1ncc(-c2cc(CN3CCC(F)(F)CC3)c3c(N)ncnn23)cc1C(=O)N[C@@H]1CN(C(=O)c2ccnc(C)c2)C[C@@H]1F` [Example 1248, 5-{4-amino-5-[(4,4-difluoropiperidin-1-yl)methyl]pyrrolo[2,1-f][1,2,4]triazin-7-yl}-N-[(3R,4S)-4-fluoro-1-(2-methylpyridine-4-carbonyl)pyrrolidin-3-yl]-2-methoxypyridine-3-carboxamide], the figure is 0.0031 µM.
As for `CC(O)(CC(=O)N1C[C@H](F)[C@H](NC(=O)c2cc(-c3cc(C(F)(F)F)c4c(N)ncnn34)ccc2OCC(F)(F)F)C1)C(F)(F)F` (stereo partly drawn) [Example 1068, 5-[4-amino-5-(trifluoromethyl)pyrrolo[2,1-f][1,2,4]triazin-7-yl]-N-[(3R,4S)-4-fluoro-1-(4,4,4-trifluoro-3-hydroxy-3-methylbutanoyl)pyrrolidin-3-yl]-2-(2,2,2-trifluoroethoxy)benzamide], the figure is 0.106 µM; as for `Nc1ncnn2c(-c3cnc(F)c(C(=O)NCC[C@H](O)c4ccc(Cl)cc4)c3)cc(C(F)(F)F)c12` [Example 17, 5-[4-amino-5-(trifluoromethyl)pyrrolo[2,1-f][1,2,4]triazin-7-yl]-N-[(3S)-3-(4-chlorophenyl)-3-hydroxypropyl]-2-fluoropyridine-3-carboxamide], 0.0098 µM; as for `CCC(O)(C(=O)N1C[C@H](F)[C@H](NC(=O)c2cc(-c3cc(C(F)(F)F)c4c(N)ncnn34)c(C)nc2C)C1)C(F)(F)F` (stereo partly drawn) [Example 1199, 5-[4-amino-5-(trifluoromethyl)pyrrolo[2,1-f][1,2,4]triazin-7-yl]-N-[(3R,4S)-4-fluoro-1-[2-hydroxy-2-(trifluoromethyl)butanoyl]pyrrolidin-3-yl]-2,6-dimethylpyridine-3-carboxamide], 0.164 µM.
Take `COc1ncc(-c2cc(C(F)(F)F)c3c(N)ncnn23)cc1C(=O)NC1CN(C(C)CC(O)(c2ccccc2)C(F)(F)F)C[C@@H]1F` (mixture of isomers) [Example 1383, 5-[4-amino-5-(trifluoromethyl)-pyrrolo[2,1-f][1,2,4]triazin-7-yl]-N-[(3R,4S)-4-fluoro-1-(5,5,5-trifluoro-4-hydroxy-4-phenylpentan-2-yl)pyrrolidin-3-yl]-2-methoxypyridine-3-carboxamide]: the IC50 is 0.364 µM.
The figure for `COc1ncc(-c2cc(C(F)(F)F)c3c(N)ncnn23)cc1C(=O)NC1CN(CCC(C(F)(F)F)C(F)(F)F)CC1F` (racemic) [Example 193, 5-[4-amino-5-(trifluoromethyl)pyrrolo[2,1-f][1,2,4]triazin-7-yl]-N-{4-fluoro-1-[4,4,4-trifluoro-3-(trifluoromethyl)butyl]pyrrolidin-3-yl}-2-methoxypyridine-3-carboxamide] is 0.066 µM; for `COc1ncc(-c2cc(CN3CCC(F)(F)CC3)c3c(N)ncnn23)cc1C(=O)N[C@@H]1CN(C(=O)OCC2(C(F)(F)F)CC2)C[C@@H]1F` [Example 1510, [1-(trifluoromethyl)cyclopropyl]methyl (3R,4S)-3-(5-{4-amino-5-[(4,4-difluoropiperidin-1-yl)methyl]pyrrolo[2,1-f][1,2,4]triazin-7-yl}-2-methoxypyridine-3-amido)-4-fluoropyrrolidine-1-carboxylate] it is 0.0016 µM.
In the case of `Cc1cc(F)c(-c2cc(C(F)(F)F)c3c(N)ncnn23)cc1C(=O)N[C@@H]1CN(C(=O)CC(C)(O)C(F)(F)F)C[C@@H]1F` (stereo partly drawn) [Example 856, 5-[4-amino-5-(trifluoromethyl)pyrrolo[2,1-f][1,2,4]triazin-7-yl]-4-fluoro-N-[(3R,4S)-4-fluoro-1-(4,4,4-trifluoro-3-hydroxy-3-methylbutanoyl)pyrrolidin-3-yl]-2-methylbenzamide], the half-maximal inhibitory concentration (IC50) was found to be 0.004 µM.
The figure for `Cc1cccc(C(=O)N2C[C@H](F)[C@H](NC(=O)c3cc(-c4cc(C(F)(F)F)c5c(N)ncnn45)c(F)cc3C)C2)n1` [Example 842, 5-[4-amino-5-(trifluoromethyl)pyrrolo[2,1-f][1,2,4]triazin-7-yl]-4-fluoro-N-[(3R,4S)-4-fluoro-1-(6-methylpyridine-2-carbonyl)pyrrolidin-3-yl]-2-methylbenzamide] is 0.023 µM; for `COc1ncc(-c2cc(C(F)(F)F)c3c(N)ncnn23)cc1C(=O)N(C)[C@@H]1CN(C(=O)[C@@](C)(OC)C(F)(F)F)C[C@@H]1F` [Example 1347, 5-(4-amino-5-(trifluoromethyl)pyrrolo[2,1-f][1,2,4]triazin-7-yl)-N-((3R,4S)-4-fluoro-1-((R)-3,3,3-trifluoro-2-methoxy-2-methylpropanoyl)pyrrolidin-3-yl)-2-methoxy-N-methylnicotinamide] it is 0.213 µM.
The figure for `COc1ncc(-c2cc(C(F)(F)F)c3c(N)ncnn23)cc1C(=O)N[C@@H]1CN(C(=O)C2(C(F)(F)F)CCN(C(=O)OC(C)(C)C)C2)C[C@@H]1F` (stereo partly drawn) [Example 1678, tert-butyl 3-((3R,4S)-3-(5-(4-amino-5-(trifluoromethyl)pyrrolo[2,1-f][1,2,4]triazin-7-yl)-2-methoxynicotinamido)-4-fluoropyrrolidine-1-carbonyl)-3-(trifluoromethyl)pyrrolidine-1-carboxylate] is 0.281 µM.
The figure for `COc1cc(F)c(-c2cc(CN3CCC(C(F)(F)F)CC3)c3c(N)ncnn23)cc1C(=O)N[C@@H]1CN(C(=O)[C@@](C)(O)C(F)(F)F)C[C@@H]1F` [Example 1639, 5-(4-amino-5-{[4-(trifluoromethyl)piperidin-1-yl]methyl}pyrrolo[2,1-f][1,2,4]triazin-7-yl)-4-fluoro-N-[(3R,4S)-4-fluoro-1-[(2R)-3,3,3-trifluoro-2-hydroxy-2-methylpropanoyl]pyrrolidin-3-yl]-2-methoxybenzamide] is 0.0014 µM.
Take `COc1ncc(-c2cc(C(F)(F)F)c3c(N)ncnn23)cc1C(=O)NC1CN(CC2CCC2)CC1F` (racemic) [Example 189, 5-[4-amino-5-(trifluoromethyl)pyrrolo[2,1-f][1,2,4]triazin-7-yl]-N-[1-(cyclobutylmethyl)-4-fluoropyrrolidin-3-yl]-2-methoxypyridine-3-carboxamide]: the IC50 came to 0.032 µM.
As for `COc1ncc(-c2cc(CN3CCOCC3)c3c(N)ncnn23)cc1C(=O)N[C@@H]1CN(C(=O)C2CC(F)(F)C2)C[C@@H]1F` [Example 487, 5-{4-amino-5-[(morpholin-4-yl)methyl]pyrrolo[2,1-f][1,2,4]triazin-7-yl}-N-[(3R,4S)-1-(3,3-difluorocyclobutanecarbonyl)-4-fluoropyrrolidin-3-yl]-2-methoxypyridine-3-carboxamide], the figure is 0.0013 µM; as for `COc1ncc(-c2ccc3c(N)ncnn23)cc1C(=O)Nc1cnn(Cc2ccccc2)c1` [Example 153, 5-{4-aminopyrrolo[2,1-f][1,2,4]triazin-7-yl}-N-(1-benzyl-1H-pyrazol-4-yl)-2-methoxypyridine-3-carboxamide], 0.014 µM.

The IC50 is the concentration needed to halve the response being measured.

Values taken from patent US11618753B2 (priority 2018, dated 2023).
